Assay results published in the supplement of paper PMC3334620.
Whole data set: some 33,000 sequences, median “E-score (-0.5 to 0.5)” near -0.017, cut for the highest 2% near 0.3. This is one part of the list.

What follows are sequences tested against T1, Sut1 (UniProt P53032) (assay: PBM E-score (8-mer binding enrichment) (E-score (-0.5 to 0.5)); higher = stronger / more preferred TF binding; most listed sequences are background and not binding sites). Details: protein concentration: 200 nM; construct: GST-full length.
T1 sequence: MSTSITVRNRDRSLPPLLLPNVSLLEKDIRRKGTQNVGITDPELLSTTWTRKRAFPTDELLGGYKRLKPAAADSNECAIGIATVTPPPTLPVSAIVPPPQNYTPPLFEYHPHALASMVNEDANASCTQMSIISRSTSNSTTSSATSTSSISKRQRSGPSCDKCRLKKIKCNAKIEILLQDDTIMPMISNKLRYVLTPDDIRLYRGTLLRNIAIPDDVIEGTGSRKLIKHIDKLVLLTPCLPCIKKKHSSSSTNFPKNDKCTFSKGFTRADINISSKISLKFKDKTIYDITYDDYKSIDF
Method in brief: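 Full-length yeast transcription factors or their DNA-binding domains, GST-tagged and expressed with PURExpress, were applied at about 100-200 nM to universal all-10-mer Agilent arrays. These arrays had been made double-stranded by primer extension on fresh or once-stripped slides. Detection used fluorescent anti-GST, normalisation used masliner, and E-scores for ungapped eight-base words pooled with reverse complements came from the Universal PBM Analysis Suite.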
CGATCACG was tested, and the “PBM E-score” value was 0.119.
For CGGCCACG, the “PBM E-score” value was -0.164.
AGCGCAGG was tested, and the “PBM E-score” value was -0.158.
For ACTTAGAG, the “PBM E-score” value was 0.0503.
CAGCAGGC was tested, and the “PBM E-score” value was 0.00282.
With CGGACTAC the “PBM E-score” value was 0.464.
In the case of GCACCTTA, the “PBM E-score” value was -0.00495.
CAGGATTC was tested, and the “PBM E-score” value was -0.114.
GGAATTGA was tested, and the “PBM E-score” value was 0.193.
In the case of ACTAATGA, the “PBM E-score” value was 0.171.
CACTCGTA was tested, and the “PBM E-score” value was -0.091.
For GGGTTACA, the “PBM E-score” value was -0.00487.
With ACGTATTA the “PBM E-score” value was 0.25.
ATTGAAAC was tested, and the “PBM E-score” value was 0.184.
With TCCGCTCA the “PBM E-score” value was -0.0284.
With AGCCGGTG the “PBM E-score” value was 0.00841.
CTCGCAGA was tested, and the “PBM E-score” value was -0.2.
With ATCCTACC the “PBM E-score” value was -0.136.
ACGTCCAT was tested, and the “PBM E-score” value was -0.113.
For GAGGGTAC, the “PBM E-score” value was -0.296.
AGGTGATC was tested, and the “PBM E-score” value was -0.00559.
With CGGCAATA the “PBM E-score” value was 0.0568.
For TAGAACTA, the “PBM E-score” value was 0.153.
For AGCCAGGC, the “PBM E-score” value was -0.225.
With CGAATTCA the “PBM E-score” value was 0.15.
For AAATGGCG, the “PBM E-score” value was 0.0515.
CTGGATCA was tested, and the “PBM E-score” value was -0.0551.
With CCTACGTA the “PBM E-score” value was -0.0517.
For GGAGTTCA, the “PBM E-score” value was 0.339.
With AGCAATGA the “PBM E-score” value was 0.0807.
For TGATCACA, the “PBM E-score” value was 0.0721.
For AGCAACGG, the “PBM E-score” value was 0.144.
For ATGAGGCG, the “PBM E-score” value was -0.246.
With ATCGGTTG the “PBM E-score” value was 0.0119.
With CTGGGGGC the “PBM E-score” value was -0.388.
For ACGATAGT, the “PBM E-score” value was 0.143.
AACGAACT was tested, and the “PBM E-score” value was -0.0484.
With CCAAACTA the “PBM E-score” value was 0.0416.
In the case of CGGAAAGA, the “PBM E-score” value was 0.312.
For GAGCTGCC, the “PBM E-score” value was 0.0317.
For TCGTCGCA, the “PBM E-score” value was -0.0851.
In the case of CCATAACC, the “PBM E-score” value was -0.199.
With GACACTGC the “PBM E-score” value was -0.162.
CTGGTGTC was tested, and the “PBM E-score” value was -0.0948.
ATTTTTAG was tested, and the “PBM E-score” value was 0.0681.
With ACTCACGA the “PBM E-score” value was -0.144.
With CACAATCC the “PBM E-score” value was 0.188.
AAGGAGCA was tested, and the “PBM E-score” value was 0.0291.
CTCGACAG was tested, and the “PBM E-score” value was -0.251.
For CTAGGGGA, the “PBM E-score” value was -0.131.
CAGTCACA was tested, and the “PBM E-score” value was -0.17.
For AATCTCAT, the “PBM E-score” value was 0.161.
For AGCCAAAT, the “PBM E-score” value was 0.14.
With AAATGTCG the “PBM E-score” value was -0.126.
CCGTCTGC was tested, and the “PBM E-score” value was -0.139.
In the case of ATGCGGTA, the “PBM E-score” value was 0.133.
With ACAACGAG the “PBM E-score” value was 0.00573.
With TATTACAA the “PBM E-score” value was 0.239.
With CCAAGACG the “PBM E-score” value was -0.0858.
For ACTGTCCA, the “PBM E-score” value was -0.166.
For CTTGTCGA, the “PBM E-score” value was -0.195.
With AACCTATA the “PBM E-score” value was 0.232.
With AGCTGGTC the “PBM E-score” value was -0.152.
With CGTCTAAG the “PBM E-score” value was -0.0493.
In the case of ATCGACAG, the “PBM E-score” value was -0.106.
For GTTGTCTA, the “PBM E-score” value was 0.22.
CACACAGA was tested, and the “PBM E-score” value was -0.0363.
With ACCTGGAT the “PBM E-score” value was -0.235.
With TATCGATA the “PBM E-score” value was -0.0843.
In the case of AGCCTAAG, the “PBM E-score” value was -0.252.
ACGCGTAT was tested, and the “PBM E-score” value was -0.0385.
For GGAGTAGA, the “PBM E-score” value was 0.318.
ACCTATCT was tested, and the “PBM E-score” value was 0.0362.
With AGCCCGAC the “PBM E-score” value was -0.123.
With ACTGTTTC the “PBM E-score” value was -0.0369.
With GATCGAGC the “PBM E-score” value was 0.0593.
In the case of GACCCCTA, the “PBM E-score” value was -0.323.
In the case of CTTGCACA, the “PBM E-score” value was -0.018.
In the case of AATGAGGG, the “PBM E-score” value was -0.18.
In the case of GACAAAGC, the “PBM E-score” value was -0.0456.
With CCCACGTC the “PBM E-score” value was -0.112.
With CGCGGCAG the “PBM E-score” value was -0.0689.
With GCCAGTCC the “PBM E-score” value was -0.031.
For AGAGCCAT, the “PBM E-score” value was -0.0848.
With AGACCCCG the “PBM E-score” value was 0.18.
In the case of CTGCACTC, the “PBM E-score” value was -0.108.
CAGTTCCG was tested, and the “PBM E-score” value was 0.0272.
ATAAGCGC was tested, and the “PBM E-score” value was -0.133.
For ATGAGTCC, the “PBM E-score” value was 0.171.
For AAATTTGG, the “PBM E-score” value was -0.0915.
With CTAGTGGC the “PBM E-score” value was -0.186.
For AACAGGTA, the “PBM E-score” value was 0.0211.
For AATAGGCC, the “PBM E-score” value was 0.0314.
CGTCGAAC was tested, and the “PBM E-score” value was -0.191.
In the case of AGACAAAC, the “PBM E-score” value was 0.0938.
For CTTTAATA, the “PBM E-score” value was 0.282.
For CTACCGAG, the “PBM E-score” value was -0.115.
